Measured values as given in PubChem BioAssay AID1745845 (National Center for Advancing Translational Sciences (NCATS), 2022).
The campaign covered roughly 360,000 compounds. About 2,600 (0.72%) were called active. Inconclusive results, whose numbers are uncertain, are shown with a selection of clear calls. Calls come from the whole dose curve; as a rule, active = well fitted inhibition curve with a large enough effect; inconclusive = small, poorly fitted or top-dose-only effect; inactive = no such curve, though single readings can be large or run the other way. Potencies of inconclusive entries are doubtful fits and often do not repeat.

Test: Primary qHTS for Inhibitors of ATXN expression; note: nearly all actives have a fitted effect of over 55% in size
Conditions: HEK-293 ATXN2-luciferase reporter, luminescence, 24 h; activity change, negative = inhibition: at 57 µM (top of the series)
How it was run: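 ATXN2-luciferase reporter cells (luciferase flanked by upstream and downstream ATXN2 gene portions) were treated 24 h at 37 °C with compounds at up to 57 uM. SteadyGlo luminescence gave expression; GF-AFC fluorescence gave viability.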
% is set by controls: 0 for no effect and ±100 for the full control effect; potency is the fitted concentration of half-maximal effect; tags give direction and shape of the fitted curve.

Potency, inconclusive:
OCCN(Cc1ccccc1)CC(O)COc1ccc(-c2ccccc2)cc1 (configuration not stated) 20 µM [inhibitor, single point]
COc1ccc(C2=NN(C(=O)c3ccc(Cl)c([N+](=O)[O-])c3)C(c3ccccc3)C2)cc1 (configuration not stated) 39.8 µM [inhibitor, single point]
Cc1cc(Cn2nc(-c3ccccc3)cc2C(=O)NCc2cccc(C(F)(F)F)c2)on1 31.6 µM [inhibitor, single point]
Cc1cc(C(=O)Nc2nc(-c3ccccn3)cs2)ccc1[N+](=O)[O-] 8.44 µM [inhibitor, partial curve, poor fit]
COc1ccc(NC(=O)/C(C#N)=C\c2cc(C)n(-c3ccc4c(c3)OCO4)c2C)cc1 8.44 µM [inhibitor, single point]
CCCCCCCCN1C(=O)[C@H](CC(=O)NCc2cccs2)C[C@@]2(C(=O)OC)CCCCC=C12 39.8 µM [inhibitor, single point]
Cc1nn(-c2ccccc2Cl)c(Cl)c1/C=N/Nc1nc2ccccc2s1 12.6 µM [inhibitor, partial curve, poor fit]
CCN(C(=O)C1CCCN(c2ncnc3c2nc2n3CCCCC2)C1)c1cccc(C)c1 (configuration not stated) 31.6 µM [inhibitor, single point]
COc1ccc(Nc2nc(N3CCCCC3)c3ccccc3n2)cc1 39.8 µM [inhibitor, single point]
Cc1ccc(C)c(S(=O)(=O)Nc2ccccc2C(=O)Nc2cc(C)on2)c1 31.6 µM [inhibitor, single point]
Cc1cc(C)c(C)c(S(=O)(=O)ON2C(=O)c3ccccc3C2=O)c1C 25.1 µM [inhibitor, single point]
CN1[C@H]2CC[C@H]1CC(OC(=O)c1c[nH]c3ccccc13)C2 (some centres not stated) 21.7 µM [inhibitor, partial curve, poor fit]
CC(=O)Oc1ccc2ccccc2c1C(NC(=O)Cc1ccccc1)c1ccc(Cl)cc1 (configuration not stated) 39.8 µM [inhibitor, single point]
Cc1nc2c(-c3ccccc3)c(C)nn2c(C)c1CCC(=O)Nc1ccccc1F 31.6 µM [inhibitor, single point]
O=C(/C(N=Nc1cccc(C(F)(F)F)c1)=C(/O)c1cccs1)C(F)(F)F 37.7 µM [inhibitor, single point]
O=S(=O)(Nc1cc(Sc2ncn[nH]2)c(O)c2ccccc12)c1ccccc1 15.8 µM [inhibitor, partial curve, poor fit]
Cc1cc(C)n(CC(=O)n2c(C)c(C)c3ccccc32)n1 39.8 µM [inhibitor, partial curve, poor fit]
Cc1ccc(Cn2nnnc2CN2CCC(c3nc4ccc(Cl)cc4[nH]3)CC2)cc1 8.91 µM [inhibitor, partial curve]
C=CC[C@@H](CC(=O)N[C@H](CO)Cc1ccccc1)C(=O)N[C@H](COC(=O)[C@@H](CC=C)Cc1ccc(F)cc1)Cc1c[nH]c2ccccc12 39.8 µM [inhibitor, single point]
CC(C)C[C@H]1CNC(=S)N1C[C@H]1CCCN1C[C@H](Cc1ccc(O)cc1)N1C[C@H](Cc2ccccc2)N(CC2CCCCC2)C1=S 20 µM [inhibitor, single point]
COc1c(Cl)cc(Cl)cc1C(=O)Nc1ccc(CN2CCCCC2)cc1 39.8 µM [inhibitor, partial curve, poor fit]
CCOc1ccccc1CNC(=O)Cn1ccc2cc(S(=O)(=O)N3CCCCCC3)ccc21 17.8 µM [inhibitor, partial curve, poor fit]
Fc1ccc2c(-c3cccc(C(F)(F)F)c3)c(-c3ccccc3)ncc2c1 17.8 µM [inhibitor, partial curve, poor fit]
COc1cccc(NC(=O)CC2S/C(=N\S(=O)(=O)c3ccccc3)N(c3ccccc3)C2=O)c1 (configuration not stated) 1.41 µM [inhibitor, partial curve]
COc1ccc(C(=O)NCc2ccc(-c3nc4ccccc4s3)cc2)cc1 39.8 µM [inhibitor, partial curve, poor fit]
O=C(OCCNc1nc(-c2ccccc2)nc2ccccc12)c1ccncc1 31.6 µM [inhibitor, partial curve, poor fit]
O=C(Nc1ccc(S(=O)(=O)Nc2ccccc2)cc1)c1ccc(CN2CCOCC2)cc1 2.67 µM [inhibitor, partial curve, poor fit]
COc1cc2c3c(n(C)c(=O)c2cc1OC)-c1cc2c(cc1C3=O)OCO2 0.844 µM [inhibitor, full curve, poor fit]
Cc1ccccc1Nc1sc(C(=O)c2ccccc2)c(N)c1C(=O)NCc1ccc(Cl)cc1 15.8 µM [inhibitor, partial curve]
CCc1ccccc1NC(=O)CSCc1cnn(-c2ccccc2)c1-n1cccc1 22.4 µM [inhibitor, partial curve, poor fit]
CCCCN(C(=O)Cn1ncc(Cl)c(Cl)c1=O)c1c(N)n(CC(C)C)c(=O)[nH]c1=O 35.5 µM [inhibitor, single point]
O=C(c1cccnc1)N(c1cc2sc(=O)oc2c2ccccc12)S(=O)(=O)c1ccccc1 22.4 µM [inhibitor, partial curve, poor fit]
Cc1ccc(N2C(=O)CC(Sc3nc4ccccc4o3)C2=O)cc1Cl (configuration not stated) 31.6 µM [inhibitor, single point]
Cc1ccc(C(O)(c2ccccc2)c2ccccc2C(C)N(C)C)c(C)c1 (configuration not stated) 15.8 µM [inhibitor, partial curve, poor fit]
CCc1ccc(C2c3[nH]c4ccccc4c3CCN2C(=O)CN2CCN(CC)CC2)cc1 (configuration not stated) 35.5 µM [inhibitor, single point]
CN(C)CCCn1c2c3ccccc3ccc2c2oc(=O)c3ccccc3c21 11.9 µM [inhibitor, partial curve, poor fit]
O=C(Nc1nnc(-c2ccco2)o1)c1ccc2ccccc2c1 39.8 µM [inhibitor, single point]
CC1(Cc2ccc(C(F)(F)F)o2)C(=O)Nc2ccc(-c3cccc(C(F)(F)F)c3)cc21 (configuration not stated) 39.8 µM [inhibitor, single point]

Potency, inactive:
CCOC(=O)c1[nH]c(C)c(CCC(=O)Nc2cccc(SC)c2)c1C
O=[N+]([O-])c1ccc(CN2CCN(c3ccc(F)cc3)CC2)o1
CC(=O)N(CC(O)CN(C(C)=O)c1c(I)c(C(=O)NCC(O)CO)c(I)c(C(=O)NCC(O)CO)c1I)c1c(I)c(C(=O)NCC(O)CO)c(I)c(C(=O)NCC(O)CO)c1I (configuration not stated)
CC1Cc2ccccc2N1C(=O)C(C)n1cc(C(F)(F)F)cc(Cl)c1=O (configuration not stated)
COCCN1CCN(Cc2nc(C3(c4ccc(C)cc4)CCCC3)no2)CC1
CC1=C(C(=O)OC(C)C)C(c2cccs2)NC(=O)N1 (configuration not stated)
O=C(NCc1nnc(SCc2ccc(F)cc2)n1-c1ccccc1)C12CC3CC(CC(C3)C1)C2
O=C1CCCCC1(CCc1ccncc1)CCc1ccncc1
CC(C)(C)c1ccc(CN(Cc2ccccc2)C(c2ccccn2)c2nnnn2C(C)(C)C)cc1 (configuration not stated)
Cc1ccc(S(=O)(=O)N2CCOCC2)cc1NC(=O)CNC(C)c1ccccc1 (configuration not stated)
COc1ccc(NC(=O)c2cccc(F)c2)cc1Cl
CCOc1cc(NC(=O)c2ccco2)c(OCC)cc1NC(=O)c1ccco1
O=C(N/N=C/c1cccc(Oc2ccc([N+](=O)[O-])cc2[N+](=O)[O-])c1)c1cncc(Br)c1
COC(=O)c1ccccc1NC(=O)c1cc(C)nc2c1c(C)nn2-c1ccc(C)cc1
CCOc1ccc(CCNc2ccc3nnc(-c4ccccc4)n3n2)cc1OCC
Cc1nn2c(N)c(-c3ccccc3)cnc2c1-c1ccc(Cl)cc1
O=C(NC1CC2CCCC(C1)N2Cc1ccccc1)c1cccc(Cl)c1 (configuration not stated)
COc1ccc(N(CC(=O)N2CCN(c3cccc(C)c3)C(C)C2)S(=O)(=O)c2c(C)n[nH]c2C)cc1 (configuration not stated)
N#C/C(=C(/O)c1ccco1)c1nc2ccccc2s1
CCCCn1cc2c(c1-c1ccccc1Br)c(=O)n(C)c(=O)n2C
CCCCn1nnc(NC(=S)NC(=O)c2ccc(-c3cccc(Cl)c3Cl)o2)n1
COc1ccccc1C(=O)Nc1ccc(C)cc1C(=O)c1ccccc1
C(=NOCCc1ccccc1)c1ccccn1

Potency, active:
Cc1ccc2nc(-c3ccccc3)nn2c1 3.16 µM
COC(=O)c1ccc2c(c1)C(C)(C)C(/C=C/c1ccc(O)cc1)=[N+]2C 3.16 µM
CC(C)(C)c1ccc(C(=O)N2CCCCCC2=O)cc1 6.31 µM
O=C1CCCC(O)=C1C=NCc1ccccc1 4.74 µM
CN1CCN(c2cc(-c3cc(O)c4ncccc4c3)ccn2)CC1 10 µM

Activity change, negative = inhibition, inactive:
CCCN1CCN(C(=S)NCc2ccc(Cl)cc2)CC1 6.59% [at 11.3 µM]
